Measurements: the supplement of paper PMC11369174, “Proteome-scale characterisation of motif-based interactome rewiring by disease mutations” (Molecular Systems Biology, 2024)
This is one part of the list. This is a noisy data set.

Experiments:
Assay in all cases: mutation enrichment score (mutant vs wild-type peptide binding to bait); baits are purified protein domains named by gene / domain / UniProt id / residues; peptides come from disordered regions of human proteins; higher = mutation enhances binding relative to wild type
[1] = molecular target: WDR5_WD_1234567_P61964_21_334; conditions: paper call: no_effect, wild-type window: …
[2] = molecular target: T1, ZMYND11_coiled-coil-MYND__Q15326_480_602; conditions: wild-type window: …
T1 chain: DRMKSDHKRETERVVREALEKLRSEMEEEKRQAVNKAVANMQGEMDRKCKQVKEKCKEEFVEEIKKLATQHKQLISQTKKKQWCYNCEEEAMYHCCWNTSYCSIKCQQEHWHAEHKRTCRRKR

[3] = molecular target: WWTR1_WW__Q9GZV5_122_160; conditions: number of wild-type / mutant comparisons summed (bounds the score): 6; paper call: no_effect; wild-type window: …
[4] = molecular target: USP7_MATH-TRAF__Q93009_53_206; conditions: number of wild-type / mutant comparisons summed (bounds the score): 20; paper call: diminished; wild-type window: …
[5] = number of wild-type / mutant comparisons summed (bounds the score): 12
[6] = number of wild-type / mutant comparisons summed (bounds the score): 6, paper call: no_effect
[7] = number of wild-type / mutant comparisons summed (bounds the score): 12, paper call: no_effect
[8] = number of wild-type / mutant comparisons summed (bounds the score): 6

WWTR1_WW__Q9GZV5_122_160, sequence (chain, as listed by the source): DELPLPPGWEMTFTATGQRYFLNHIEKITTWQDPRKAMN
USP7_MATH-TRAF__Q93009_53_206, sequence (chain, as listed by the source): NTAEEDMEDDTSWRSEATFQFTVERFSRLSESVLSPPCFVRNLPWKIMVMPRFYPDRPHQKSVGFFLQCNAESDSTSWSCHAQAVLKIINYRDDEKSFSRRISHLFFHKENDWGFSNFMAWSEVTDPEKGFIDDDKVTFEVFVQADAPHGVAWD

FNVTPHHHQHSHIHSHLHLHRQDPLHQGSAGPVHPLVDPLT [Q1440R Q1440R]
mutation enrichment score [1, 5]: -2

LSAPSAPIFQDVLLQFLDTQPPMLTDPRSESERVEFFNLVL [A578P A578P]
mutation enrichment score [2, 6]: 1

SPEGTLTVEAPMPKLATQSNKITIPVTFESRAQLGGPEAAK [E178K E178K]
mutation enrichment score [2, 6]: -1

ELGSNVSGTQTYPVVTGRDMVSTTLPGYPPHVPPTGQGSYP [A334V A334V]
mutation enrichment score [3]: 3

KGSRAAMSLQEEAEPTPSPPYPNRESLALALTAAHSRSGSE [S2032Y S2032Y]
mutation enrichment score [3]: 2

RAAVPYPPTVADLQRMFPTPTSLEQHPAFSPVMNYKDGISS [P869T P869T]
mutation enrichment score [2, 6]: -2

MLELTPEEVVQRVRSPPPLCGPLVSMDQAPVECILLMKQCW [R768G R768G]
mutation enrichment score [1, 5]: 1

CGTCGQPADKASASGSGAQVSGPISSGSSASSVTVTRSYRS [G608S G608S]
mutation enrichment score [4]: -5

SASHQADIKEARREVEVKLTLLILKPFGNSISRYNGEPEHI [P119L P119L]
mutation enrichment score [1, 5]: 2

LRRSLPPGLLRRVSSTWTTTSSATGLPTLEPAPVRRDRSTS [T445S T445S]
mutation enrichment score [2, 7]: 1

PLHPTPPPASTAAGMPSLQHATPPGMTPPQPAAPTQPSTPV [T872A T872A]
mutation enrichment score [2, 6]: -2

MEATRRRQHLGATGGPGAQLTASFLQ [R6T R6T]
mutation enrichment score [1, 8]: 2

ELSVVILLESTGLGLLRASIRYFLFLFALPILVAGLALVGV [G562R G562R]
mutation enrichment score [1, 8]: -4

ELSVVILLESTGLGLLRASISYFLFLFALPILVAGLALVGV [G562S G562S]
mutation enrichment score [1, 8]: -3.9

YLGTDIAAGEEVAIKLECVKAKHPQLHIESKIYKMMQGGVG [T44A T44A]
mutation enrichment score [1, 8]: 1.9

LSQIPSDTASPLLILPPPVPTPSPTLRPVETPVVGAPGMGS [N457T N457T]
mutation enrichment score [3]: 1

DDMFNFETFGNSMICLFQITASAGWDGLLAPILNSKPPDCD [T1722A T1722A]
mutation enrichment score [1, 8]: 1

LGKDGRAAVPYPPTVADLQRKFPTPPSLEQHPAFSPVMNYK [M864K M864K]
mutation enrichment score [2, 6]: -2

LGKDGRAAVPYPPTVADLQRLFPTPPSLEQHPAFSPVMNYK [M864L M864L]
mutation enrichment score [2, 6]: -2

TQEPFREELAYDRMPTLERGQQDPASYAPDAKPSDLQLSKR [R22Q R22Q]
mutation enrichment score ([2]; number of wild-type / mutant comparisons summed (bounds the score): 12, paper call: enhanced): 10

GHDDGQRPSGGAAAAPRRGAHLRRPRHSHPTRARRCPGGLP [Q85H Q85H]
mutation enrichment score [1, 8]: 1

MATRGGAGVAMAVWSLLSARMVTAFLLLF [V9M V9M]
mutation enrichment score [1, 8]: 0.67

NRKTQETAVAMHVAANSIQNMPPGYPNMNQGGMMGTGPPYG [R911M R911M]
mutation enrichment score [3]: 3

LLYGWAVIPMMYPASFLFDVLSTAYVALSCANLFIGINSSA [P1788L P1788L]
mutation enrichment score [1, 8]: 2

GEEDAGGREDSILVNGACSDKSSDSPPILEAIRTPEIRGRR [Q30K Q30K]
mutation enrichment score [2, 6]: -3.5

FMWCELSVVILLESTGLGLLCASIGYFLFLFALPILVAGLA [R558C R558C]
mutation enrichment score [1, 8]: -4

FMWCELSVVILLESTGLGLLSASIGYFLFLFALPILVAGLA [R558S R558S]
mutation enrichment score [1, 8]: -4

FMWCELSVVILLESTGLGLLHASIGYFLFLFALPILVAGLA [R558H R558H]
mutation enrichment score [1, 8]: -4

KNASQKRRSLRVHIPDLSSFTMPLLDGDLEGSGKHSSRKVD [A44T A44T]
mutation enrichment score [2, 6]: 3

RLPNGVLPNAVLPPSLDHVYVQWRQQEPETPESGQPPGDPS [A1541V A1541V]
mutation enrichment score [2, 6]: 3

RRQPNISDQQVSALSYSDQIEQPLTNQVMPDIVMLQRRMPQ [Q63E Q63E]
mutation enrichment score [2, 6]: -3

RRQPNISDQQVSALSYSDQIKQPLTNQVMPDIVMLQRRMPQ [Q63K Q63K]
mutation enrichment score [2, 6]: -1.9

QLYIYIRLLGAYLFIISRVQRQNLDSMLHGTGMKSDSDQKK [G23R G23R]
mutation enrichment score [1, 8]: -2

QEAWVQNTSVVENVCFGQELGPPWLERVLEACALQPDVDSF [D718G D718G]
mutation enrichment score [2, 7]: 2.1

EMEGTVKSKYKASITALEAKVAQLEEQLDNETKERQAACKQ [I1816V I1816V]
mutation enrichment score [1, 8]: -2

SYTSGLETLLNIPIKRTMIQPPSGVILQEAADVHARYIELL [S987P S987P]
mutation enrichment score [1, 8]: -2

SYTSGLETLLNIPIKRTMIQTPSGVILQEAADVHARYIELL [S987T S987T]
mutation enrichment score [1, 8]: -2

KEDLQELNDRLAVYIDRVRSVETENAGLRLRITESEEVVSR [L52V L52V]
mutation enrichment score [1, 8]: 2

KDGRAAVPYPPTVADLQRMFLTPPSLEQHPAFSPVMNYKDG [P866L P866L]
mutation enrichment score [2, 7]: -1

LDARPEVTRNDVAPTLMSVPQYLPRPANPDEIGNFIDENLK [R796Q R796Q]
mutation enrichment score [2, 6]: 3

LQGFRLEEYLIGQSIGKGCSPAVYEATMPTLPQNLEVTKST [A168P A168P]
mutation enrichment score [2, 6]: 3

DGRAAVPYPPTVADLQRMFPIPPSLEQHPAFSPVMNYKDGI [T867I T867I]
mutation enrichment score [2, 6]: -2

RPIVKPEYFTEFLKAVESKKEPPQIESFYPPLDEPSIGSKN [Q189E Q189E]
mutation enrichment score [2, 6]: 2

VIEDNKSENILENTDSMETDGIIPILEKLAPSEDELTCFSK [E434G E434G]
mutation enrichment score [2, 6]: 1

LARLQMFNVTPHHHQHSHIHPHLHLHQQDPLHQGSAGPVHP [S1434P S1434P]
mutation enrichment score [1, 5]: 0

SKFFLPIKESATSTNRSQEEPSPSPPLLNPSTPQSTESQPT [L308P L308P]
mutation enrichment score [2, 7]: -1

SQSESSSHPALSQSPMPQERSFMAGTQRNPQMAQYGPQQTG [G778S G778S]
mutation enrichment score [1, 5]: 2
